Measurements as given in patent US20110212116A1, “IMMUNOGENIC PEPTIDES AND USES THEREOF” (Cancer Research Technology Limited, priority 2008, published 2011).

Experiments:
[1] = biological target: HLA-A2 molecules on the surface of T2 cells (Homo sapiens, UniProt P04439, D140Y/D185E/D98H/E176V/E277Q/G131W/G231S/I119V/I121R/I166T/I218V/L300P/L318F/N151K/N90K/P208A/P217A/Q86G/Q94H/R138H/R169H/T345S); test: T2 assay: stabilisation of HLA-A2 on T2 cells by peptide (FACS); type: binding; settings: overnight incubation with peptide, anti-HLA-A2-FITC, mean fluorescence
[2] = biological target: T1, HLA-A*0201 molecules on the surface of T2 cells (human); test: T2 cell HLA-A2 stabilisation, FACS
T1 construct: whole, on cells; Empty or weakly loaded class I molecule on T2 cells; also called HLA-A2; MHC class I

Row | binding result [2] | Molecule | Stabilisation of HLA-A2 molecules on the surface of T2 cells (binding to HLA-A2) [1]
1 |  | P14: modified PASD1 peptide, SEQ ID NO 21, derivative of wild type peptide P8 (RLWQELSDI; Synthetic sequence amino acid sequence p14) | greatest stabilisation
2 |  | KIQEQLQMV [P1, wild type control nonamer located in the human CLOCK gene, reference compound] | showed binding
3 | binds | KIQEQLQMV [Peptide 1 (P1), wild type CLOCK peptide] | 
